Measurements published in patent US12024547B2, “KLK5 inhibitory peptide” (DAIICHI SANKYO COMPANY, LIMITED, priority 2018, dated 2024).

T1: KLK5 (Homo sapiens, UniProt Q9Y337)
T1 construct: “Active KLK5” means active KLK5, which is composed of a domain having a protease activity; His tag (C); FLAG (Gly-DYKDDDDK before the His tag); made in house; host or cells: Expi293F cells
T1 sequence (Q9Y337 67-293): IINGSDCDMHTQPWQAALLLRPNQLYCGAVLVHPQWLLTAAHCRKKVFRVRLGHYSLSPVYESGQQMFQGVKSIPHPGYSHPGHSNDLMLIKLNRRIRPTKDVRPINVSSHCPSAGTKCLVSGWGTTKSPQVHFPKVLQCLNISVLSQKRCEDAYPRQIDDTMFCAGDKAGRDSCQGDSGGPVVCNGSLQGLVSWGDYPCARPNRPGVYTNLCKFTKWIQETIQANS

T2: human KLK14 (Homo sapiens, UniProt Q9P0G3)
T2 construct: His tag (C); FLAG (Gly-DYKDDDDK before the His tag); made in house; host or cells: Expi293F cells
T2 sequence (Q9P0G3 25-251): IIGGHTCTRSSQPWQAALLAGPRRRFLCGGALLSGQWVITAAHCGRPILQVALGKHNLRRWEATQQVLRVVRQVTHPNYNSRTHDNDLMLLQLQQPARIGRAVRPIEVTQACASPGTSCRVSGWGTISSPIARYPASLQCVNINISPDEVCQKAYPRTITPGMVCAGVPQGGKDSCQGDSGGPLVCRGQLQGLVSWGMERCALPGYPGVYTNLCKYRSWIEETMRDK


Legend:
Crusty2 (+/+) mice = assay: Suppression of transepidermal water loss (TEWL) increase in Netherton syndrome model mice; format: in vivo, mouse
Procedure: Crusty2 (+/−) mice and Crusty2 (+/+) mice were crossed by artificial insemination, and the KLK5 inhibitory peptide Fc fusion D1-K50055-Fc produced in (5-4) was evaluated using the resulting offspring (Crusty2 (+/−) mice or Crusty2 (+/+) mice). From 0 or 1 day after birth, PBS or 100 mg/kg of D1-K50055-Fc was subcutaneously administered every other day for 4 weeks. At the first administration only, a 3-fold amount of D1-K50055-Fc was administered as a loading dose. Using VAPO SCAN (AS-VT100RS, Asahi Techno Lab. Ltd.), TEWL on the skin of the back or hip of the mice was measured at 2 and 4 weeks after administration (FIG. 7). The number of Crusty2 (+/−) mice was 9, and the number of Crusty2 (+/+) mice was 12, in each of the PBS-administered group and the D1-K50055-Fc-administered group.

human KLK7 = target: T3, human KLK7 (Homo sapiens, UniProt P49862); assay: Human KLK7 inhibitory activity, peptide substrate degradation; format: biochemical; details: KLK5 inhibitory peptide Fc fusion; read-out: IC50(nM) for hKLK7
T3 construct: His tag (C); FLAG (Gly-DYKDDDDK before the His tag); made in house; host or cells: Expi293F cells
T3 sequence (P49862 30-253): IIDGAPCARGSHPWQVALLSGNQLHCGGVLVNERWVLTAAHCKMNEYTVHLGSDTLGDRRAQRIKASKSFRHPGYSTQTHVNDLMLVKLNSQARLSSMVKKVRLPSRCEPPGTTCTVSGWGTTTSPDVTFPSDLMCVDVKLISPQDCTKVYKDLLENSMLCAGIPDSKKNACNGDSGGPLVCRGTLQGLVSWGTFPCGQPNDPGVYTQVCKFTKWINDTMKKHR
Procedure: (§1) The substrate peptide was dissolved in DMSO to 10 mM and diluted with an assay buffer (50 mM Tris-HCl, 150 mM NaCl, pH 8.0) for use. 25 μL each of human/mouse KLK5, human/mouse KLK7, or human/mouse KLK14 and the inhibitory peptide diluted with the assay buffer were mixed, followed by a reaction at 37° C. for 20 minutes. Thereafter, 50 μL of a substrate diluted with the assay buffer was added thereto, and the fluorescence signal was measured using Enspire (PerkinElmer). The combinations of the enzyme and the substrate used were as follows.
Evaluation of Human KLK7 inhibitory activity: hKLK7 with a final concentration of 1 μg/mL, a substrate peptide Mca-Arg-Pro-Lys-Pro-Val-Glu-Nval-Trp-Arg-Lys (Dnp)-NH2 (SEQ ID NO: 101) (R&D Systems, Inc., FIG. 85, and the amino acid sequence shown in SEQ ID NO: 77) with a final concentration of 20 μM, and a fluorescence signal with excitation at 320 nm/emission at 405 nm
(§2) The average value of three independent experiments was used to calculate the IC50 value.
(§3) According to the method described in Example 3-1, the inhibitory activities of each KLK5 inhibitory peptide Fc fusion against human/mouse KLK5, human/mouse KLK7, and human/mouse KLK14 were evaluated. […] The average value of three independent experiments was used to calculate the IC50 value.

KLK5 = target: T1, KLK5; assay: KLK5 binding activity of KLK5 inhibitory peptide Fc fusion, surface plasmon resonance (Fc fusion captured, KLK5 as analyte); details: BIAcore T 200, single cycle kinetics
Procedure: In order to measure the binding affinity of a KLK5 inhibitory peptide Fc fusion prepared in (5-2), which will be described below, surface plasmon resonance analysis was conducted using BIAcore T 200 (GE healthcare).
The KLK5 inhibitory peptide Fc fusion was captured at a flow rate of 20 μL/min by Sensor Chip CM5 (GE healthcare) on which an anti-human IgG (Fc) antibody was immobilized to immobilize about 30 to 50 RU. Thereafter, KLK5, serially diluted 2-fold with HBS-EP (0.625 to 10 nM), was added thereto as an analyte at a flow rate of 30 μL/min. In the BIAcore T 200 Evaluation software (version 2.0), kon and koff were calculated by analysis using Single cycle kinetics in a simple one-to-one Langmuir binding model. The dissociation constant KD was calculated as a ratio of koff/kon. Further, the binding activity of KLK5 to multiple KLK5 inhibitory peptide Fc fusions was measured by regenerating Sensor Chip CM5 on which the anti-human IgG (Fc) antibody was immobilized using a Regeneration buffer attached to a Human Antibody Capture Kit (GE healthcare) and repeatedly capturing the KLK5 inhibitory peptide Fc fusion.

human KLK14 = target: T2, human KLK14; assay: Human KLK14 inhibitory activity, peptide substrate degradation; format: biochemical; details: KLK5 inhibitory peptide Fc fusion; read-out: IC50(nM) for hKLK14
Procedure: as §1
Evaluation of Human KLK14 inhibitory activity: hKLK14 with a final concentration of 0.2 μg/mL, a substrate peptide Boc-Val-Pro-Arg-AMC with a final concentration of 100 μM (R&D Systems, Inc.), and a fluorescence signal with excitation at 380 nm/emission at 460 nm
as §2, §3

[1] = Crusty2 (+/+) mice, 100 mg/kg s.c. every other day, after 4 weeks, vs PBS-administered group

Molecule	Koff (KLK5)	other results
D1-K50055-Fc: KLK5 inhibitory peptide Fc fusion, amino acid sequence SEQ ID NO: 96 (protein) DGPQFGLFSKYRTPNCANTMKQDCTREYDPVCGSDMSTYANECTLCMKIREGGHNIKIIRNGPC[gap - human IgG1 Fc]		TEWL on the skin of the back (Crusty2 (+/+) mice; [1]): statistically significant decrease in TEWL; TEWL on the skin of the hip (Crusty2 (+/+) mice; [1]): statistically significant decrease in TEWL; dermatitis (Crusty2 (+/+) mice; Crusty2 mice with homo (+/+) SPINK5 mutation): improved dermatitis
D3-K50015-Fc: KLK5/KLK14 inhibitory peptide Fc fusion, amino acid sequence SEQ ID NO: 60 (protein) DDDGPQFGLFSKYRTPNCYDTTTHYCSREYDPVCGSDMSTYANECTLCMKIREGGHNIKIIRNGPC[gap - human IgG1 Fc]	3.52e-06 s⁻¹	IC50 (human KLK7): > 1000 nM
D3-K50016dN-Fc: KLK5 inhibitory peptide Fc fusion, amino acid sequence SEQ ID NO: 40 (protein) DDDGPQFGLFSKYRTPNCGQWQYSSCDRVYDPVCGSDMSTYANECTLCMKIREGGHNIKIIRNGPC[gap - human IgG1 Fc]	5.6e-06 s⁻¹	
D3-K51034-Fc: KLK5 inhibitory peptide Fc fusion, amino acid sequence SEQ ID NO: 42 (protein) DDDGPQFGLFSKYRTPNCGRYTTGGCNKEYEPVCGSDMSTYANECTLCMKIREGGHNIKIIRNGPC[gap - human IgG1 Fc]	2.93e-06 s⁻¹	
D3-K50062-Fc: KLK5 inhibitory peptide Fc fusion, amino acid sequence SEQ ID NO: 44 (protein) DDDGPQFGLFSKYRTPNCQQYRELGCGRQYDPVCGSDMSTYANECTLCMKIREGGHNIKIIRNGPC[gap - human IgG1 Fc]	6.52e-06 s⁻¹	
D3-K51090-Fc: KLK5 inhibitory peptide Fc fusion, amino acid sequence SEQ ID NO: 46 (protein) DDDGPQFGLFSKYRTPNCDEIGKYGCGRSYDPVCGSDMSTYANECTLCMKIREGGHNIKIIRNGPC[gap - human IgG1 Fc]	7.86e-06 s⁻¹	IC50 (human KLK7): > 1000 nM
D3-K50098dN-Fc: KLK5 inhibitory peptide Fc fusion, amino acid sequence SEQ ID NO: 48 (protein) DDDGPQFGLFSKYRTPNCGSQTLGSCSREYDPVCGSDMSTYANECTLCMKIREGGHNIKIIRNGPC[gap - human IgG1 Fc]	<1.62e-06 s⁻¹	
D3-K51005-Fc: KLK5/KLK7 inhibitory peptide Fc fusion, amino acid sequence SEQ ID NO: 52 (protein) DDDGPQFGLFSKYRTPNCMQHARQGCHYDYDPVCGSDMSTYANECTLCMKIREGGHNIKIIRNGPC[gap - human IgG1 Fc]	1.96e-05 s⁻¹	IC50 (human KLK14): > 1000 nM
D3-K50031-Fc: KLK5/KLK7 inhibitory peptide Fc fusion, amino acid sequence SEQ ID NO: 54 (protein) DDDGPQFGLFSKYRTPNCGEYKGRGCYYHYDPVCGSDMSTYANECTLCMKIREGGHNIKIIRNGPC[gap - human IgG1 Fc]	<1e-06 s⁻¹	
D3-K51057-Fc: KLK5/KLK7 inhibitory peptide Fc fusion, amino acid sequence SEQ ID NO: 56 (protein) DDDGPQFGLFSKYRTPNCGTMQGSGCTYHYEPVCGSDMSTYANECTLCMKIREGGHNIKIIRNGPC[gap - human IgG1 Fc]	1.79e-05 s⁻¹	
D3-K51028-Fc: KLK5/KLK7 inhibitory peptide Fc fusion, amino acid sequence SEQ ID NO: 50 (protein) DDDGPQFGLFSKYRTPNCYQYRSKGCTHEYDPVCGSDMSTYANECTLCMKIREGGHNIKIIRNGPC[gap - human IgG1 Fc]	1.81e-06 s⁻¹	
D3-K50032dN-Fc: KLK5 inhibitory peptide Fc fusion, amino acid sequence SEQ ID NO: 34 (protein) DDDGPQFGLFSKYRTPNCLQWTDHQCERDYDPVCGSDMSTYANECTLCMKIREGGHNIKIIRNGPC[gap - human IgG1 Fc]	5.69e-06 s⁻¹	
D3-K50055-Fc: KLK5 inhibitory peptide Fc fusion, amino acid sequence SEQ ID NO: 36 (protein) DDDGPQFGLFSKYRTPNCANTMKQDCTREYDPVCGSDMSTYANECTLCMKIREGGHNIKIIRNGPC[gap - human IgG1 Fc]	2.32e-06 s⁻¹	
D3-K51069dN-Fc: KLK5/KLK14 inhibitory peptide Fc fusion, amino acid sequence SEQ ID NO: 58 (protein) DDDGPQFGLFSKYRTPNCGQVVETYCNRDYDPVCGSDMSTYANECTLCMKIREGGHNIKIIRNGPC[gap - human IgG1 Fc]	2.81e-06 s⁻¹	
D3-K51072-Fc: KLK5 inhibitory peptide Fc fusion, amino acid sequence SEQ ID NO: 38 (protein) DDDGPQFGLFSKYRTPNCQEDMTEYCARDFDPVCGSDMSTYANECTLCMKIREGGHNIKIIRNGPC[gap - human IgG1 Fc]	1.68e-06 s⁻¹	
